# Laboratory results taken from PubChem BioAssay AID1745853 (National Center for Advancing Translational Sciences (NCATS), 2022).
# The list shows a part of the results. Further columns of the screen follow, without active or inactive calls.
# Tests used:
# Test in all cases: Primary Screen for Target Class Profiling of Small Molecule Inhibitors of Methyltransferases
# [1] = molecular target: Glycine N-methyltransferase (Homo sapiens) (UniProt Q14749); conditions: purified enzyme, MTase-Glo SAH luminescence; measured here: GNMT inhibition; at 40 µM; stronger effect = lower value
# Procedure, shortened: (§1)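 Each enzyme was reacted with SAM and its substrate, with compounds tested once at 40 uM; SAH formed was read by MTase-Glo luminescence.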
# [2] = molecular target: Guanidinoacetate N-methyltransferase (Homo sapiens) (UniProt Q14353); conditions: purified enzyme, MTase-Glo SAH luminescence; measured here: GAMT inhibition; at 40 µM; stronger effect = lower value
# Procedure, shortened: as §1
# [3] = molecular target: Histamine N-methyltransferase (Homo sapiens) (UniProt P50135); conditions: purified enzyme, MTase-Glo SAH luminescence; measured here: HNMT inhibition; at 40 µM; stronger effect = lower value
# Procedure, shortened: as §1
# [4] = molecular target: Nicotinamide N-methyltransferase (Homo sapiens) (UniProt P40261); conditions: purified enzyme, MTase-Glo SAH luminescence; measured here: NNMT inhibition; at 40 µM; stronger effect = lower value
# Procedure, shortened: as §1
# [5] = molecular target: Phenylethanolamine N-methyltransferase (Homo sapiens) (UniProt P11086); conditions: purified enzyme, MTase-Glo SAH luminescence; measured here: PNMT inhibition; at 40 µM; stronger effect = lower value
# Procedure, shortened: as §1
# On the % scale 0 is the no-effect control and ±100 the full control effect.
Compound,"activity change, negative = inhibition [1] [%]","activity change, negative = inhibition [2] [%]","activity change, negative = inhibition [3] [%]","activity change, negative = inhibition [4] [%]","activity change, negative = inhibition [5] [%]"
COC(=O)c1ccc(C)c2c1C1C=CCC1[C@@H](c1ccc(C(=O)O)cc1)N2 (stereo partly drawn),-34.7,3.99,2.68,5.74,-1.95
COc1ccc(-c2cc3n(n2)CC(C)(C(=O)NCc2ccccc2OC)N(CCCc2ccccc2)C3=O)cc1 (stereo not drawn),8.49,1.45,6.85,8.13,1.63
Cc1ccc(C)c(N2CCN(C(=O)CCc3nnc4n(CC(C)C)c(=O)c5ccccc5n34)CC2)c1,-9.04,0,8.62,-1.09,-1.07
CN(C)CCC=C1c2ccccc2CCc2ccccc21,-3.03,9.48,-51.5,-14.5,2.22
CCOC(=O)c1cccc(N2C(=O)c3cc(C(=O)OCC)nn3CC2(C)C(=O)NCCC(C)C)c1 (stereo not drawn),-8.29,0.462,-7.82,-8.55,-9.97
N#Cc1c[nH]c2c(C(=O)N3CCN(CCc4ccc(F)cc4)CC3)cccc12,-6.85,-7.14,3.09,-22,-11.8
O=c1[nH]c2ccc(S(=O)(=O)N3CCCc4ccccc43)cc2[nH]1,3.88,0.642,4.38,-3.24,-15
CCc1noc([C@@H]2CC(F)(F)CN2C(=O)c2cc(C3CC3)[nH]n2)n1,-0.222,-0.591,0.995,1.87,3.84
CCn1nccc1C(=O)N1CCC(Nc2nccnc2OC)CC1,-5.97,-7.22,-2.02,-5.76,-2.16
O=c1c2ccccc2n2c(=O)n(Cc3ccccc3Cl)nc2n1Cc1ccc(F)cc1,4.61,3.17,6.2,8.09,3.91
Cc1[nH]c(=O)c(C#N)cc1-c1ccncc1,1.21,14.7,12.1,-0.939,5.82
CN(Cc1cc(F)c(F)c(F)c1)C1CCc2nn(CC3CC3)c(=O)n2CC1 (stereo not drawn),-2.96,3.07,3.58,-3.58,1.88
CC(=O)c1ccc(Nc2nc3c(S(=O)(=O)c4ccccc4)nnn3c3ccc(Cl)cc23)cc1,-8.22,0,4.55,-1.15,-1.58
O=C(NC1CCCCC1)c1ccc2c(=O)nc3c(-c4ccccc4)n[nH]n3c2c1,3.36,4.88,3.53,9.55,3.05
COCCCNC(=O)C1(C)Cn2nc(-c3ccccc3)cc2C(=O)N1c1ccc(C)cc1 (stereo not drawn),-5.42,0.03,-6.43,-11.1,-9.62
CCCCC(=O)N(c1ccc(OC)cc1)S(=O)(=O)c1ccc2c(c1)n(C)c(=O)n2C,-7.09,5.84,-5.47,-15.8,-3.94
CC1(C(=O)NCc2ccc(Cl)cc2)Cn2c(ccc2-c2ccco2)C(=O)N1Cc1ccc(F)cc1 (stereo not drawn),-8.52,-0.729,-7.83,-11.8,-6.14
Cc1nc([C@@H]2CN(C(=O)c3nn(C)c4ccccc34)C[C@H]2C(N)=O)n[nH]1,-0.958,-0.24,1.61,-3.73,1.72
CC(C)CCNC(=O)[C@H]1CN(Cc2ccccc2)C[C@H]1C(=O)O,-3.99,-3.47,-0.861,2.39,-15.1
COc1ccc(N(C)c2nc(C)nc3ccccc23)cc1,-25,-0.288,4.36,-25.6,-7.45

Compound,"activity change, negative = inhibition [1] [%]","activity change, negative = inhibition [2] [%]","activity change, negative = inhibition [3] [%]","activity change, negative = inhibition [4] [%]","activity change, negative = inhibition [5] [%]"
CC(=O)Nc1c2n(c3ccc(F)cc13)CC(C)(C(=O)NC1CCCCC1)N(C1CCCCCC1)C2=O (stereo not drawn),-2.12,4.66,4.13,-1.04,0.902
Cc1ccc(-c2cc3c(ccn3C)c(C(=O)NCc3cccnc3)n2)cn1,-19,-15.8,-12.5,-27.4,-17.1
CC(=O)c1cc(C(=O)N[C@@H](C)Cn2ccc(-c3ccc(C#N)c(Cl)c3)n2)[nH]n1,-2.53,3.66,-2.55,-27.2,-7.69
COc1ccc(CCN(Cc2ccccn2)C(=O)[C@H]2CCC[C@H](O)C2)cc1,-6.8,-7.65,-5.25,-11.3,-1.16
Cn1c(=O)c2[nH]cnc2n(C)c1=O,3.93,11.5,12.1,-7.74,0.195
CCN1C(C)(C)CC(Oc2ccc(C(=O)Nc3ccc(NC(=O)Nc4cc(C(C)(C)C)on4)cc3)nc2)CC1(C)C,0.182,-5.83,5.69,-22,-5.65
CS(=O)(=O)c1ccc(C2=C(c3ccccc3)C(=O)OC2)cc1,-0.676,1.2,3.68,-11.2,-2.91
COc1ccc(CCNC(=O)c2ccc3c(=O)[nH]c4c(C(=O)NCC5CCCO5)sc(=S)n4c3c2)cc1OC (stereo not drawn),-32.7,3.7,0.214,-12.2,-12.5
CCCCNc1ncc2c(-c3ccc(S(=O)(=O)N4CCOCC4)cc3)nn(C3CCC(O)CC3)c2n1 (stereo not drawn),-0.107,7.91,5.74,-4.92,-0.326
CC(C)CCNC(=O)C1(C)Cn2c(cc3ccccc32)C(=O)N1c1ccc(F)cc1 (stereo not drawn),9.27,4.48,10.9,12.2,3.57
C[C@@H]1C(=O)O[C@H]2[C@H](O)C34[C@H]5C[C@@H](C(C)(C)C)C36[C@@H](OC(=O)[C@@H]6O)O[C@@]4(C(=O)O5)[C@@]12O (stereo partly drawn),-0.38,4.39,-2.28,-7.48,2.59
COC(=O)c1cc2n(n1)CC(C)(C(=O)NC1CCCCC1)N(Cc1ccc(OC)cc1OC)C2=O (stereo not drawn),4.67,1.71,9.49,-6.16,3.56
O=C(NCc1ccc2c(c1)OCO2)c1sc(=S)n2c1[nH]c(=O)c1cc3c(cc12)OCO3,-0.053,1.33,7.47,2.36,0.218
Cc1ccc(C(=O)CSc2nnc3n(C)c(=O)c4ccc(C(=O)NC5CCCCC5)cc4n23)c(C)c1,-1.09,0,-2.75,-0.451,0.217
C=C1CC[C@H]2[C@@](C)(CCC(OC3OC(CO)C(O)C(O)C3O)[C@@]2(C)CO)C1C(=O)CC1=CCOC1=O (stereo partly drawn),2.62,5.38,6.67,-8.02,6.99
CCCn1c(=O)c2ccccc2n2c(SCC(=O)Nc3ccc(OC)c(OC)c3)nnc12,3.05,6.04,3.81,3.21,3.38
CCN1CCN(CCNC(=O)c2cc3n(n2)CC(C)(C(=O)NC2CCCCC2)N(C)C3=O)CC1 (stereo not drawn),-1.03,-0.05,-7.43,-1.66,-4.13
COC(=O)c1ccc([C@H]2Nc3ccc(S(=O)(=O)Nc4ccc(C)c(C)c4)cc3[C@H]3C=CC[C@H]32)cc1,-20.5,-6.23,-24.3,-21.4,-22.7
C/C=C1\[C@H](O[C@@H]2O[C@H](CO)[C@@H](O)[C@H](O)[C@H]2O)OC=C(C(=O)OCCc2ccc(O)cc2)[C@H]1CC(=O)OCCc1ccc(O)cc1,-5.42,-11.5,1.48,-15.8,-9.59
C#CCNC(=O)CNC(=O)c1cccc(-c2cc(F)ccc2OC)c1,-4.67,-9.4,-1.18,-9.47,-8.23

Compound,"activity change, negative = inhibition [1] [%]","activity change, negative = inhibition [2] [%]","activity change, negative = inhibition [3] [%]","activity change, negative = inhibition [4] [%]","activity change, negative = inhibition [5] [%]"
CCCCS(=O)(=O)N1CCC(c2nnc(Cn3cncn3)n2C)CC1,-2.65,-1.72,-3,-4.6,1.57
COC[C@]1(O)CCN(C(=O)c2oc(COc3ccccc3)cc2C)CC1(C)C,-1.32,2.01,1.68,-0.084,16.6
CCOc1ccccc1CN1CCCOCCNC(=O)[C@@H]2CCCC[C@@H]21,-7.58,-5.19,-3.06,-3.72,-6.22
CCOc1ccc(CN2C(=O)c3cc4ccccc4n3CC2(C)C(=O)NCc2ccccc2OC)cc1 (stereo not drawn),5.74,4.53,9.86,5.31,1.63
COc1ccc(CCNC(=O)CCc2nnc3n(Cc4ccc(Cl)cc4)c(=O)c4ccccc4n23)cc1OC,-5.88,0,10.6,-8.72,2.63
O=C(Nc1ccc(S(=O)(=O)Nc2nccs2)cc1)C(c1ccccc1)c1ccccc1,0.084,-5.39,2.35,-36.6,-12.7
O=C1c2ccccc2-c2c(NCCc3ccccc3)c(=O)[nH]c3cccc1c23,,-15.6,,-37.5,-13.8
COc1cccc(CN2C(=O)c3cc4occc4n3CC2(C)C(=O)NC2CCCCC2C)c1 (stereo not drawn),-0.769,0.183,0.481,-3.44,-2.66
COc1ccc2cc3n(c2c1)CC(C)(C(=O)NC1CCCC1)N(C1CCCCCC1)C3=O (stereo not drawn),0.048,1.18,6.16,-1.76,-0.107
CCCn1c(=O)c2ccc(Cl)cc2n2c(=O)n(CC(=O)Nc3ccc(OC)cc3)nc12,-0.031,4.94,1.96,-0.802,1.78
CC(C)Cn1c(=O)c2ccccc2n2c(CCC(=O)N3CCN(c4ccc(F)cc4)CC3)nnc12,-16,3.18,0.505,-35.5,-5.13
CC(C)(C)[C@H](NC(=O)c1ccc(N)c(Cl)c1)C(=O)N1CCC[C@H]1C(=O)N[C@H](C#N)CC(=O)O,-9.3,-6.92,-1.64,-16.4,2.18
OCCNC1CCCc2c1[nH]c1ccc(-c3ccccc3)cc21 (stereo not drawn),-1.65,3.96,3.7,-21.8,-6.54
CN1C(=O)c2cc(C(=O)NCCc3ccc(Cl)cc3)nn2CC1(C)C(=O)NC1CCCCCC1 (stereo not drawn),6.55,0,7.3,-2.08,5.43
C/C=C/C=C/C=C/C(=O)O[C@@H]1[C@@H](OC)C2=C(C(=O)N(C(C)C(=O)O)C2)[C@@]2(C)CCCC(C)(C)[C@H]12 (stereo partly drawn),-15,5.74,10.9,-9.16,7.57
Cc1cc(C[C@@H]2COC[C@@H]2NC(=O)c2cnn3cc(CCO)cnc23)on1,-0.249,2.38,3.52,-1.63,-1.05
Cc1cccc(-c2nnn3c2nc(NCCc2ccc(S(N)(=O)=O)cc2)c2ccccc23)c1,-13.8,-4.85,-2.57,-14.4,-7.06
CCOc1ccc(N2C(=O)c3cc(-c4ccccc4)nn3CC2(C)C(=O)NCCCOC)cc1 (stereo not drawn),-2.88,3.24,-2.25,-7.49,-5.38
